Laboratory results: PubChem BioAssay AID651820 (National Center for Advancing Translational Sciences (NCATS), 2012)
“And” between values parts separate entries of the source, which are not always exact repeats. Equal entries are not always repeated. Hit rate of the full screen: of about 340,000 compounds, about 12,000 (3.5%) were called active. This list was built around the results that the source calls inconclusive (neither active nor inactive); the mix of calls is not that of the screen. Calls follow the shape of the dose curve; as a rule, active = well fitted inhibition curve with a large enough effect; inconclusive = small, poorly fitted or top-dose-only effect, or another doubt; inactive = no such curve, though single readings can be large or run the other way. Potencies of inconclusive entries are left out as doubtful fits. The source holds several records for some structures; these can differ, active in one and inactive in another.

Assay: qHTS Assay for Inhibitors of Hepatitis C Virus (HCV)
Conditions: Huh7.5.1 HCVcc-Cre (HCVcc is cell-culture hepatitis C virus) infection, luciferase reporter, 44 h; activity change, negative = inhibition: at 41.8 µM (top of the series) unless noted
Summary of the method: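 Antiviral activity was scored by luciferase reporter output from cells infected with HCVcc-Cre (~0.5 moi) in presence of compound, 44 h infection period, cells seeded 1,000/well 4 h prior.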
% is scaled to controls: 0 for no effect and ±100 for the full control effect; potency is read from the fitted curve at half-maximal effect; tags tell the direction and shape of the fitted curve.

**Q.** For Cc1cc(C)c(S(=O)(=O)N2CCN(C(=O)c3ccc(-n4nc(C)c(Cl)c4C)cc3)CC2)c(C)c1, which Potency is on record?
**A.** inconclusive [inhibitor, single point]

**Q.** Which Potency does the source give for Cc1cccc(-n2c(SCC(=O)NCc3ccc4c(c3)OCO4)nc3ccccc3c2=O)c1 here?
**A.** inconclusive [inhibitor, single point]

**Q.** Which Potency does the source give for CCCc1nc2ccccc2n1Cc1ccccc1OC here?
**A.** inconclusive [inhibitor, single point]

**Q.** With CC1=NN(C(=O)c2csc(C)c2)C(O)(C(F)(F)F)C1 (configuration not stated) as the compound, how does the “activity change, negative = inhibition” value read?
**A.** inactive: 0.0005%

**Q.** For O=C(Nc1ccc(N2CCCC2)cc1)c1cc([N+](=O)[O-])ccc1N1CCOCC1, which Potency is on record?
**A.** inconclusive [inhibitor, partial curve]

**Q.** With CSc1ccc(CN(C)C(=O)C(c2ccccc2)c2ccccc2)cc1 as the compound, how does the Potency read?
**A.** inconclusive [inhibitor, partial curve, poor fit]

**Q.** Which Potency does the source give for Cc1ccc(Nc2nc(CSc3nnc(-c4ccc(F)cc4)n3C)cs2)cc1 here?
**A.** inconclusive [inhibitor, single point]

**Q.** With O=S(=O)(CCSc1ccccn1)c1nc2ccccc2s1 as the compound, how does the Potency read?
**A.** inconclusive [inhibitor, single point]

**Q.** For Cc1ccc(-c2cc(C(=O)N/N=C/c3ccc(Cl)cc3)n[nH]2)o1, which “activity change, negative = inhibition” value is on record?
**A.** inactive: -17%

**Q.** With O=C(COc1ccccc1F)Nc1nc(-c2ccccn2)cs1 as the compound, how does the Potency read?
**A.** inconclusive [inhibitor, partial curve]

**Q.** With CN(CC(=O)Nc1ccc(F)cc1)C(=O)CSc1nnc(Cc2ccccc2)o1 as the compound, how does the Potency read?
**A.** inconclusive [inhibitor, single point]

**Q.** With Cc1ccc(C)c2[nH]c(=O)c(CCNC(=O)c3ccc(S(=O)(=O)N4CCCC4)cc3)cc12 as the compound, how does the Potency read?
**A.** inconclusive [inhibitor, partial curve]

**Q.** Which Potency does the source give for Cc1cc(C)c2nc(SCC(=O)N3CC(=O)Nc4ccccc43)c(C#N)cc2c1 here?
**A.** active: 7.94 µM

**Q.** For Cc1ccc(-c2nnc(N3CCOCC3)c3ccccc23)cc1S(=O)(=O)NCC1CCCO1 (configuration not stated), which “activity change, negative = inhibition” value is on record?
**A.** inactive: -5.92%

**Q.** For O=[N+]([O-])c1nn(-c2ccccc2)n(O)c1=NC1CCN(Cc2ccccc2)CC1, which Potency is on record?
**A.** active: 2 µM

**Q.** With CCOc1ccc(NS(=O)(=O)c2ccc(NC(=O)c3ccccn3)cc2)cc1 as the compound, how does the Potency read?
**A.** inconclusive [inhibitor, single point]

**Q.** Which Potency does the source give for Cc1ccc2cc(CN(Cc3ccc4c(c3)OCO4)Cc3nnnn3Cc3ccco3)c(=O)[nH]c2c1 here?
**A.** inactive and active: 15.8 µM

**Q.** For O=C(COc1ccc2ccccc2c1)Nc1nc2ccccc2[nH]1, which Potency is on record?
**A.** inconclusive [inhibitor, single point]

**Q.** Which “activity change, negative = inhibition” value does the source give for O=C1CCC(C(=O)OCc2nnc(-c3ccc(Cl)cc3)o2)=NN1 here?
**A.** inactive: 10.6%

**Q.** With Nc1nonc1-c1noc(CCCOc2ccc(Cl)cc2Cl)n1 as the compound, how does the Potency read?
**A.** inconclusive [inhibitor, partial curve]

**Q.** Which “activity change, negative = inhibition” value does the source give for CC(=NCCO)c1c(O)n(C2CCCCC2)c(=O)[nH]c1=O here?
**A.** inactive: 20.2%

**Q.** For CCOc1cc(OCC)c(C(C)=O)cc1OCC, which “activity change, negative = inhibition” value is on record?
**A.** inactive: 14.7%

**Q.** With CCc1ccc(Nc2ccc(C(N)=O)cc2[N+](=O)[O-])cc1 as the compound, how does the Potency read?
**A.** inconclusive [inhibitor, partial curve]

**Q.** Which “activity change, negative = inhibition” value does the source give for CC1Cn2c(nnc2-c2cccc(Cl)c2)S1 (configuration not stated) here?
**A.** inactive: -11.3%

**Q.** For CN(C)C(=O)c1ccc(NC(=O)c2cccc(S(=O)(=O)N3CCCc4ccccc43)c2)cc1, which Potency is on record?
**A.** inconclusive [inhibitor, partial curve]

**Q.** For C/C(=N\Nc1cc(C)nc(-c2ccccc2O)n1)c1ccccc1O, which Potency is on record?
**A.** active: 11.2 µM

**Q.** For CCc1cccc(CC)c1NC(=O)CCCSc1nc2ccccc2s1, which “activity change, negative = inhibition” value is on record?
**A.** inactive: -13.1%

**Q.** Which Potency does the source give for OC(CNC1CCCCCC1)COc1cccc2ccccc12 (configuration not stated) here?
**A.** inconclusive [inhibitor, single point]

**Q.** Which Potency does the source give for O=c1cc(CSc2nnc(-c3cccs3)n2Cc2ccccc2)nc2sc3ccccc3n12 here?
**A.** inconclusive [inhibitor, full curve]

**Q.** Which Potency does the source give for CN(C)CC(CCC(CN(C)C)C(=O)c1ccccc1)C(=O)c1ccccc1 (configuration not stated) here?
**A.** inconclusive [inhibitor, partial curve, poor fit]

**Q.** For Cc1ccc(S(=O)(=O)N2CCOCC2)cc1NC(=O)CSc1ncccn1, which “activity change, negative = inhibition” value is on record?
**A.** inactive: 1.71%

**Q.** For COc1ccc(N2CCN(C(=O)CCCOc3cc(=O)n(C)c4ccccc34)CC2)cc1, which “activity change, negative = inhibition” value is on record?
**A.** inactive: -11.3%

**Q.** With c1ccc(-c2nnc3sc(Cc4cccs4)nn23)cc1 as the compound, how does the Potency read?
**A.** inconclusive [inhibitor, single point]

**Q.** For Cc1cc(N/N=C/c2ccc(O)cc2O)nc(N2CCOCC2)n1, which Potency is on record?
**A.** inconclusive [inhibitor, partial curve]

**Q.** Which Potency does the source give for Cc1c(C(=O)Nc2ccccc2)sc2nc(-c3ccccc3)cn12 here?
**A.** active: 8.91 µM

**Q.** With C/C(=N\NC(N)=S)C12CC3CC(CC(C3)C1)C2 as the compound, how does the Potency read?
**A.** inconclusive [inhibitor, partial curve]

**Q.** For CSC(=S)NCc1cccnc1, which Potency is on record?
**A.** inconclusive [inhibitor, partial curve]

**Q.** For CC1(C)Cc2c(sc3nc(NCCN4CCOCC4)n4ncnc4c23)CO1, which Potency is on record?
**A.** inconclusive [inhibitor, single point]

**Q.** With CC(=O)c1cccc(NC(=O)NC2CCCCC2)c1 as the compound, how does the “activity change, negative = inhibition” value read?
**A.** inactive: -6.64%

**Q.** With O=C(Nc1cccc([N+](=O)[O-])c1)c1ccc(CN2CCOCC2)cc1 as the compound, how does the Potency read?
**A.** inconclusive [inhibitor, partial curve]

**Q.** For COc1cccc(CNCc2ccc(OC)cc2OC)c1, which “activity change, negative = inhibition” value is on record?
**A.** inactive: -6.03%

**Q.** Which Potency does the source give for CC1CCC(NC(=O)C2CCC(CNS(=O)(=O)c3cccc4cccnc34)CC2)CC1 (configuration not stated) here?
**A.** inconclusive [inhibitor, single point]

**Q.** With Cc1ccc(OCCn2cnc3c2c(=O)n(C)c(=O)n3C)cc1 as the compound, how does the Potency read?
**A.** active: 3.55 µM

**Q.** Which Potency does the source give for Clc1ccc2nc(CN3CCCc4ccccc43)cn2c1 here?
**A.** inconclusive [inhibitor, partial curve, poor fit]

**Q.** For CC(C)c1csc(CN2CCN(Cc3ccc(F)cc3)C(CCO)C2)n1 (configuration not stated), which Potency is on record?
**A.** inconclusive [inhibitor, single point]

**Q.** With CN(C)S(=O)(=O)c1ccc(N2CCCC2)c(C(=O)NCC2CCCCC2)c1 as the compound, how does the Potency read?
**A.** active: 8.91 µM

**Q.** With Cc1cnc(C(=O)Nc2cccc(-c3nnc4n3CCCCC4)c2)cn1 as the compound, how does the “activity change, negative = inhibition” value read?
**A.** inactive: 3.42%

**Q.** Which Potency does the source give for CSc1ccc(CNC(=O)C(C)n2nc(C)c3c(C)n(-c4ccccc4)nc3c2=O)cc1 (configuration not stated) here?
**A.** inconclusive [inhibitor, partial curve]

**Q.** For COc1ccc(CCNC(=O)c2cc3cc(F)ccc3nc2C)cc1OC, which Potency is on record?
**A.** inconclusive [inhibitor, partial curve]

**Q.** For CCOC(=O)c1cccc(NC(=O)N2CCOCC2)c1, which “activity change, negative = inhibition” value is on record?
**A.** inactive: -2.89%

**Q.** For Cc1cc(NC(=O)CNCC(c2ccccc2)N(C)C)c([N+](=O)[O-])cc1C (configuration not stated), which “activity change, negative = inhibition” value is on record?
**A.** inactive: 8.08%

**Q.** For O=C(CN1C(=O)NC(Cc2c[nH]c3ccccc23)C1=O)Nc1cccc(S(=O)(=O)N2CCCC2)c1 (configuration not stated), which Potency is on record?
**A.** inconclusive [inhibitor, partial curve]

**Q.** With COc1ccc2sc(-c3ccccc3OC)c(-c3ccc(OC)nc3)c2c1 as the compound, how does the Potency read?
**A.** inconclusive [inhibitor, single point]

**Q.** With CCCCC(c1nnnn1CCOC)N1CCN(CC)CC1 (configuration not stated) as the compound, how does the Potency read?
**A.** inconclusive [inhibitor, single point]

**Q.** With O=C(NCc1ccco1)c1ccc(Br)c(S(=O)(=O)N2CCCCC2)c1 as the compound, how does the Potency read?
**A.** inconclusive [inhibitor, single point]

**Q.** With Cc1ccc(C2C3=C(CC(C)(C)CC3=O)N=C3c4ccccc4C(=O)C32)cc1 (configuration not stated) as the compound, how does the Potency read?
**A.** inconclusive [inhibitor, partial curve]

**Q.** With Cc1cc(OCC(O)CNC(C)c2ccccc2)ccc1C(C)C (configuration not stated) as the compound, how does the Potency read?
**A.** inconclusive [inhibitor, single point]

**Q.** For CC(=O)Nc1ccc(NC(=O)CN(c2ccc(C34CC5CC(CC(C5)C3)C4)cc2)S(C)(=O)=O)cc1, which Potency is on record?
**A.** inconclusive [inhibitor, single point]

**Q.** For COc1ccc(NC(=O)CN(C)C(=O)CC2CCCCC2)cc1, which “activity change, negative = inhibition” value is on record?
**A.** inactive: -17.7%

**Q.** With Cc1cc(C)c2c(N)c(C(=O)N3CCc4ccccc4C3)sc2n1 as the compound, how does the Potency read?
**A.** inconclusive [inhibitor, single point]

**Q.** Which “activity change, negative = inhibition” value does the source give for O=C(N/N=C/c1cn(-c2ccccc2)nc1-c1cccnc1)c1cccnc1 here?
**A.** inactive: 11.6%

**Q.** With O=C(CSc1nccc(=O)[nH]1)c1c[nH]c2ccccc12 as the compound, how does the “activity change, negative = inhibition” value read?
**A.** inactive: 7.39%

**Q.** Which Potency does the source give for O=C(c1ccco1)N1CCC(c2nc(-c3ccccc3Cl)no2)CC1 here?
**A.** inconclusive [inhibitor, single point]

**Q.** Which “activity change, negative = inhibition” value does the source give for CCCCn1c(C)c(C(=O)O)c2cc(OC)ccc21 here?
**A.** inactive: 0.599%

**Q.** For Cc1ccnc(NC(=O)Nc2ccc3c(c2)N(C)C(=O)CS3)c1, which Potency is on record?
**A.** inconclusive [inhibitor, single point]

**Q.** Which Potency does the source give for COc1ccc(Br)c(C(=O)N2CCN(S(=O)(=O)/C=C/c3ccccc3)CC2)c1 here?
**A.** inconclusive [inhibitor, partial curve, poor fit]

**Q.** With Cc1noc(C)c1S(=O)(=O)N1CCCC(C(=O)NCCc2ccc(Cl)cc2)C1 (configuration not stated) as the compound, how does the Potency read?
**A.** inconclusive [inhibitor, full curve, poor fit]

**Q.** Which Potency does the source give for CC(C)CN(CC(C)C)C(=O)c1cccc(S(=O)(=O)N2CCc3ccccc32)c1 here?
**A.** inconclusive [inhibitor, single point]

**Q.** For COc1ccc(Oc2cc(C)c3ccccc3n2)cc1, which Potency is on record?
**A.** inconclusive [inhibitor, single point]

**Q.** For CC1CCN(S(=O)(=O)c2ccc(NC(=O)[C@@H]3CCCC[C@@H]3C(=O)O)cc2)CC1, which “activity change, negative = inhibition” value is on record?
**A.** inactive: 1.29%

**Q.** For COc1ccccc1NC(=O)c1ccc(NC(=O)COC(=O)c2cccnc2Cl)cc1, which “activity change, negative = inhibition” value is on record?
**A.** inactive: 0.834%

**Q.** For COc1ccc(C(=O)ON=C2c3ccccc3-c3ccccc32)cc1OC, which Potency is on record?
**A.** inconclusive [inhibitor, single point]
